Each structure is given as a SMILES string. ≈ marks a conversion by molar mass, not a printed value. Where two headings read alike, the source gives them in different places.

The subject of this assay is M. tuberculosis (H37Rv). The assay can be described thus: MIC, Alamar blue assay. The format is cell-based. The following applies: Table E5; for MIC: Mycobacterium tuberculosis, H37RV. (In general: The colour change of resazurin is a common sign of viable cells or microbes.)
Setting [1] is: with addition of exogenous menaquinone-4 (10 μg/mL), read-out: M. tuberculosis MIC (in parentheses).
The mark [2] stands for this setting: without menaquinone-4, read-out: M. tuberculosis MIC.

In the case of `Nc1ncnc2c1ncn2[C@@H]1O[C@H](COS(N)(=O)=O)[C@@H](O)[C@H]1O` [AMS, adenosinemonosulfamate, reference compound], for the setting “with addition of exogenous menaquinone-4 (10 μg/mL)”, the “M. tuberculosis MIC (in parentheses)” value came out at 0.32 µg/mL. Besides, the “M. tuberculosis MIC” value (without menaquinone-4) turned out to be 0.16 µg/mL.
In general, MIC refers to the smallest concentration in the dilution series that meets the test's criterion for growth inhibition. On to `Nc1ncnc2c1ncn2[C@@H]1O[C@H](COS(=O)(=O)NC(=O)CC[C@]2(O)c3ccccc3[C@H](O)C2(F)F)[C@@H](O)[C@H]1O` [(1S,3S)-2, 5′-O—(N-[3″-((1S,3S)-2′″,2′″-difluoro-1′″,3′″-dihydroxy-1′″-indanyl)propanoyl]sulfamoyl)adenosine], for which the MIC under setting [1] amounted to 31.2 µg/mL (≈ 53.2 µM) and the MIC under setting [2] was determined as 31.2 µg/mL (≈ 53.2 µM).
On to `Nc1ncnc2c1ncn2[C@@H]1O[C@H](COS(=O)(=O)NC(=O)CC[C@@]2(O)c3ccccc3[C@@H](O)C2(F)F)[C@@H](O)[C@H]1O` [(1R,3R)-2, 5′-O—(N-[3″-((1R,3R)-2′″,2′″-difluoro-1′″,3′″-dihydroxy-1′″-indanyl)propanoyl]-sulfamoyl)adenosine], for which the MIC runs as follows: under setting [1], 31.2 µg/mL (≈ 53.2 µM); under setting [2], 15.6 µg/mL (≈ 26.6 µM).
